# Data taken from the supplement of paper PMC8728848.
# Some of the results follow.
# B1: Gal 8 (Homo sapiens), O00214 (protein)
# chain: MMLSLNNLQNIIYNPVIPFVGTIPDQLDPGTLIVIRGHVPSDADRFQVDLQNGSSMKPRADVAFHFNPRFKRAGCIVCNTLINEKWGREEITYDTPFKREKSFEIVIMVKDKFQVAVNGKHTLLYGHRIGPEKIDTLGIYGKVNIHSIGFSFSSDLQSTQASSLELTEISRENVPKSGTPQLPSNRGGDISKIAPRTVYTKSKDSTVNHTLTCTKIPPMNYVSKRLPFAARLNTPMGPGRTVVVKGEVNANAKSFNVDLLAGKSKDIALHLNPRLNIKAFVRNSFLQESWGEEERNITSFPFSPGMYFEMIIYCDVREFKVAVNGVHSLEYKHRFKELSSIDTLEINGDIHLLEVRSW
# What was measured:
# Experiment in all cases: glycan array binding signal (z-score within array); higher = stronger binding
# Details in all cases: glycan notation: IUPAC condensed, linker removed
# [1] = target: Neu5Ac(a2-3)Gal6S(b1-4)[Fuc(a1-3)]GlcNAc
# Procedure, shortened: (§1)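 The binding signal is a Z-score computed within each array and averaged over linkers. Arrays of the same protein sequence at different concentrations or buffers were also averaged together. Data originate from 3228 arrays in the Consortium for Functional Glycomics database, kept only where the protein sequence was available.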
# [2] = target: Neu5Ac(a2-3)GalNAc
# Procedure, shortened: as §1
# [3] = target: Neu5Ac(a2-3)GalNAc(b1-4)GlcNAc
# Procedure, shortened: as §1
# [4] = target: Neu5Ac(a2-3)[GalNAc(b1-4)]Gal(b1-4)Glc
# Procedure, shortened: as §1
# [5] = target: Neu5Ac(a2-3)[GalNAc(b1-4)]Gal(b1-4)GlcNAc
# Procedure, shortened: as §1
# [6] = target: Neu5Ac(a2-3)[Neu5Ac(a2-6)]GalNAc
# Procedure, shortened: as §1
# [7] = target: Neu5Ac(a2-6)Gal
# Procedure, shortened: as §1
# [8] = target: Neu5Ac(a2-6)Gal(b1-4)Glc
# Procedure, shortened: as §1
# [9] = target: Neu5Ac(a2-6)Gal(b1-4)GlcNAc
# Procedure, shortened: as §1
# [10] = target: Neu5Ac(a2-6)Gal(b1-4)GlcNAc(b1-2)Man(a1-3)[Gal(b1-4)GlcNAc(b1-2)Man(a1-6)]Man(b1-4)GlcNAc(b1-4)GlcNAc
# Procedure, shortened: as §1
# [11] = target: Neu5Ac(a2-6)Gal(b1-4)GlcNAc(b1-2)Man(a1-3)[GlcNAc(b1-2)Man(a1-6)]Man(b1-4)GlcNAc(b1-4)GlcNAc
# Procedure, shortened: as §1
# [12] = target: Neu5Ac(a2-6)Gal(b1-4)GlcNAc(b1-2)Man(a1-3)[GlcNAc(b1-2)Man(b1-4)GlcNAc(b1-2)Man(a1-6)]Man(b1-4)GlcNAc(b1-4)GlcNAc
# Procedure, shortened: as §1
# [13] = target: Neu5Ac(a2-6)Gal(b1-4)GlcNAc(b1-2)Man(a1-3)[Neu5Ac(a2-6)Gal(b1-4)GlcNAc(b1-2)Man(a1-6)]Man(b1-4)GlcNAc(b1-4)GlcNAc
# Procedure, shortened: as §1
# [14] = target: Neu5Ac(a2-6)Gal(b1-4)GlcNAc(b1-2)Man(a1-6)[Gal(b1-4)GlcNAc(b1-2)Man(a1-3)]Man(b1-4)GlcNAc(b1-4)GlcNAc
# Procedure, shortened: as §1
# [15] = target: Neu5Ac(a2-6)Gal(b1-4)GlcNAc(b1-2)Man(a1-6)[GlcNAc(b1-2)Man(a1-3)]Man(b1-4)GlcNAc(b1-4)GlcNAc
# Procedure, shortened: as §1
# [16] = target: Neu5Ac(a2-6)Gal(b1-4)GlcNAc(b1-3)Gal(b1-4)GlcNAc
# Procedure, shortened: as §1
# [17] = target: Neu5Ac(a2-6)Gal(b1-4)GlcNAc(b1-3)Gal(b1-4)[Fuc(a1-3)]GlcNAc(b1-3)Gal(b1-4)[Fuc(a1-3)]GlcNAc
# Procedure, shortened: as §1
# [18] = target: Neu5Ac(a2-6)Gal(b1-4)GlcNAc6S
# Procedure, shortened: as §1
# [19] = target: Neu5Ac(a2-6)GalNAc
# Procedure, shortened: as §1
# [20] = target: Neu5Ac(a2-6)GalNAc(b1-4)GlcNAc
# Procedure, shortened: as §1
# [21] = target: Neu5Ac(a2-8)Neu5Ac
# Procedure, shortened: as §1
# [22] = target: Neu5Ac(a2-8)Neu5Ac(a2-3)Gal(b1-4)Glc
# Procedure, shortened: as §1
# [23] = target: Neu5Ac(a2-8)Neu5Ac(a2-3)[GalNAc(b1-4)]Gal(b1-4)Glc
# Procedure, shortened: as §1
# [24] = target: Neu5Ac(a2-8)Neu5Ac(a2-8)Neu5Ac
# Procedure, shortened: as §1
# [25] = target: Neu5Ac(a2-8)Neu5Ac(a2-8)Neu5Ac(a2-3)Gal(b1-4)Glc
# Procedure, shortened: as §1
# [26] = target: Neu5Ac(a2-8)Neu5Ac(a2-8)Neu5Ac(a2-3)[GalNAc(b1-4)]Gal(b1-4)Glc
# Procedure, shortened: as §1
# [27] = target: Neu5Ac(a2-8)Neu5Ac(a2-8)Neu5Ac(a2-8)Neu5Ac(a2-3)[GalNAc(b1-4)]Gal(b1-4)Glc
# Procedure, shortened: as §1
# [28] = target: Neu5Ac(b2-6)Gal(b1-4)GlcNAc
# Procedure, shortened: as §1
# [29] = target: Neu5Ac(b2-6)GalNAc
# Procedure, shortened: as §1
# [30] = target: Neu5Ac9Ac(a2-6)Gal(b1-4)GlcNAc
# Procedure, shortened: as §1
# [31] = target: Neu5Gc(a2-3)Gal(b1-3)GlcNAc
# Procedure, shortened: as §1
# [32] = target: Neu5Gc(a2-3)Gal(b1-3)[Fuc(a1-4)]GlcNAc
# Procedure, shortened: as §1
# [33] = target: Neu5Gc(a2-3)Gal(b1-4)Glc
# Procedure, shortened: as §1
# [34] = target: Neu5Gc(a2-3)Gal(b1-4)GlcNAc
# Procedure, shortened: as §1
# [35] = target: Neu5Gc(a2-3)Gal(b1-4)[Fuc(a1-3)]GlcNAc
# Procedure, shortened: as §1
# [36] = target: Neu5Gc(a2-6)Gal(b1-4)GlcNAc
# Procedure, shortened: as §1
# [37] = target: Neu5Gc(a2-6)GalNAc
# Procedure, shortened: as §1
# [38] = target: Neu5Gc(b2-6)Gal(b1-4)GlcNAc
# Procedure, shortened: as §1
binder,measurement,setting,value
B1,glycan array binding signal (z-score),[1],-0.42
same,glycan array binding signal (z-score),[2],-0.426
same,glycan array binding signal (z-score),[3],-0.378
same,glycan array binding signal (z-score),[4],-0.452
same,glycan array binding signal (z-score),[5],-0.435
same,glycan array binding signal (z-score),[6],-0.405
same,glycan array binding signal (z-score),[7],-0.417
same,glycan array binding signal (z-score),[8],-0.083
same,glycan array binding signal (z-score),[9],-0.436
same,glycan array binding signal (z-score),[10],0.187
same,glycan array binding signal (z-score),[11],-0.45
same,glycan array binding signal (z-score),[12],-0.405
same,glycan array binding signal (z-score),[13],-0.421
same,glycan array binding signal (z-score),[14],-0.001
same,glycan array binding signal (z-score),[15],-0.442
same,glycan array binding signal (z-score),[16],0.936
same,glycan array binding signal (z-score),[17],-0.365
same,glycan array binding signal (z-score),[18],-0.432
same,glycan array binding signal (z-score),[19],-0.443
same,glycan array binding signal (z-score),[20],-0.432
same,glycan array binding signal (z-score),[21],-0.419
same,glycan array binding signal (z-score),[22],0.767
same,glycan array binding signal (z-score),[23],-0.427
same,glycan array binding signal (z-score),[24],-0.438
same,glycan array binding signal (z-score),[25],0.518
same,glycan array binding signal (z-score),[26],-0.415
same,glycan array binding signal (z-score),[27],-0.414
same,glycan array binding signal (z-score),[28],-0.42
same,glycan array binding signal (z-score),[29],-0.406
same,glycan array binding signal (z-score),[30],-0.454
same,glycan array binding signal (z-score),[31],0.37
same,glycan array binding signal (z-score),[32],-0.41
same,glycan array binding signal (z-score),[33],0.213
same,glycan array binding signal (z-score),[34],-0.386
same,glycan array binding signal (z-score),[35],-0.423
same,glycan array binding signal (z-score),[36],-0.444
same,glycan array binding signal (z-score),[37],-0.439
same,glycan array binding signal (z-score),[38],-0.452
